Results: PubChem BioAssay AID1508623 (National Center for Advancing Translational Sciences (NCATS), 2021)
About 450 (0.94%) of roughly 48,000 compounds were called active. The inconclusive results got no clear call from the source; some entries with a clear call stand among them for comparison. The call rests on the fitted dose curve; in most records, active means well fitted inhibition curve with a large enough effect; inconclusive means small, poorly fitted or top-dose-only effect; inactive means no such curve, though single readings can be large or run the other way. Where the call is inconclusive, the potency comes from a doubtful curve fit.

assay: Primary qHTS for Identification of Small Molecule Inhibitors of Huntingtin Promoter Activity; conditions: HEK293 HTT promoter firefly luciferase reporter (activity 0% = vehicle and -100% = no light), 24 h; activity change, negative = inhibition: at 57.5 µM (top of the series); further: nearly all actives have a fitted effect of over 50% in size
Procedure, shortened: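 HEK293 Fluc reporter, 2,500 cells/well, 24 h pre-culture; cpds up to 57.5 uM final, 24 h 37 degrees C; Dual-Glo, 10 min RT; normalized vehicle = 0%, zero RLU = -100%.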
Potency means the concentration at half of the fitted maximal effect; tags describe the fitted curve by direction and shape.

Activity change, negative = inhibition, inconclusive:
CCC1CCCCN1S(=O)(=O)c1ccc2c(c1)CCCN2C(C)=O (configuration not stated) -31.9% [inhibitor]

Activity change, negative = inhibition, inactive:
Cc1cc(N2CCN(C)CC2)nc2ccc(NC(=O)Nc3ccc(Cl)cc3)cc12 23.1%, Cc1ccccc1C(=O)Nc1sc2c(c1C(=O)N1CCCCC1)CCC(C(C)(C)C)C2 (configuration not stated) -7.17%, CCOC(=O)c1cc(NC(=O)c2ccccc2)c(=O)n2c1oc1ccc(Cl)cc12 -3.39%, Cc1ccnc(NC(c2cccc(O)c2)c2ccc3ccc(C)nc3c2O)c1 (configuration not stated) -5.82%, CCOC(=O)c1c(NC(=O)c2ccc(S(=O)(=O)N3CCCC(C)C3)cc2)sc2c1CC(C)(C)NC2(C)C (configuration not stated) -66%, O=C1OC2(c3ccccc31)c1cc(Br)c(O)c(Br)c1Oc1c2cc(Br)c(O)c1Br 1.58%

Potency, active:
CCCCOC(=O)c1ccc(NC(=O)c2ccc3c(c2)CCCN3S(C)(=O)=O)cc1 5.01 µM

Potency, inconclusive:
Cc1nn(-c2ccc(F)cc2)c(-n2cccc2)c1C(=O)N1CCCCC1C (configuration not stated) 39.8 µM [inhibitor, single point], CCc1ccccc1-n1c(SCC(=O)Nc2ccc(C)cc2)nc2n[nH]c(C)c2c1=N 22.4 µM [inhibitor, single point], CCc1cccc(NC(=O)Cn2c(-c3ccc(F)cc3)cc(C(C)=O)c2C)c1 39.8 µM [inhibitor, single point], O=C(CSc1nc2ccccc2nc1Cc1ccc(Cl)cc1)N1CCCCC1 22.4 µM [inhibitor, partial curve, poor fit], COc1ccccc1N1CCN(c2ncc3c(n2)CCN(Cc2ccc(C)s2)C3)CC1 1.78 µM [inhibitor, full curve, poor fit], COc1ccc(Cl)cc1NC(=O)CSc1nc(-c2cccs2)cc(C(F)(F)F)n1 39.8 µM [inhibitor, single point], O=C(NCc1ccc(Cl)cc1)C1CCN(S(=O)(=O)c2ccc(F)cc2)CC1 31.6 µM [inhibitor, partial curve], CSc1ccc(CCNC(=O)c2c(C)nn(-c3ccc(F)cc3)c2-n2cccc2)cc1 17.8 µM [inhibitor, partial curve], CCC(C)n1c(SCc2ccc(F)cc2Cl)nc2ccsc2c1=O (configuration not stated) 39.8 µM [inhibitor, single point], CCOc1ccccc1CNS(=O)(=O)c1ccc(-c2cnc(C3CC3)o2)cc1 22.4 µM [inhibitor, partial curve, poor fit], COc1ccccc1Cn1c(C2CC(=O)N(c3ccccc3OC)C2)nc2ccccc21 (configuration not stated) 35.5 µM [inhibitor, partial curve, poor fit], O=C(CSC1=Nc2ccccc2C2=NC(Cc3ccccc3)C(=O)N12)Nc1cccc(Cl)c1 (configuration not stated) 28.2 µM [inhibitor, partial curve, poor fit], CCOC(=O)c1c(-c2ccccc2)oc2ccc(NS(=O)(=O)c3ccc(C)cc3)cc12 35.5 µM [inhibitor, partial curve, poor fit], CCOC(=O)c1c(C)oc2ccc(N(C(=O)c3ccncc3)S(=O)(=O)c3ccc(F)cc3C)cc12 28.2 µM [inhibitor, partial curve, poor fit], Cc1cccc(CS(=O)(=O)Cc2ccc(C(=O)NCc3ccc(F)cc3)o2)c1 20 µM [inhibitor, partial curve, poor fit], COc1ccccc1NC(=O)CSc1nnc2c(n1)[nH]c1ccccc12 15.8 µM [inhibitor, partial curve, poor fit], O=c1[nH]nc(Sc2ncc([N+](=O)[O-])s2)n1-c1ccc2c(c1)OCCO2 38.5 µM [inhibitor, single point], COc1ccccc1CNC(=O)C(=O)NCC(c1cccnc1)N1CCN(c2ccccc2)CC1 (configuration not stated) 28.2 µM [inhibitor, partial curve, poor fit], CCc1ccc(-n2c(N3CCN(c4ccc(F)cc4)CC3)nc3ccccc3c2=O)cc1 28.2 µM [inhibitor, single point], CCc1oc2ccccc2c1C(=O)c1cc(Br)c(O)c(Br)c1 39.8 µM [inhibitor, single point], Cc1cccc(C(=O)N2CCc3cc(CNC(=O)c4ccco4)ccc32)c1 39.8 µM [inhibitor, partial curve, poor fit], COc1cc(OC)cc(C(=O)Nc2ccc3c(c2)CCCN3C(=O)c2cccs2)c1 15.8 µM [inhibitor, partial curve, poor fit], CCCCN(C)S(=O)(=O)c1ccc(C(=O)Nc2sc3c(c2C(=O)OCC)CCN(C(C)C)C3)cc1 28.2 µM [inhibitor, partial curve, poor fit], CCOC(=O)C1CCN(C(=O)C2CCN(S(=O)(=O)c3c(C)noc3/C=C/c3ccc(C)cc3)CC2)CC1 39.8 µM [inhibitor, single point], CCCC1=Nc2cc(C(=O)NCc3ccccc3)ccc2Sc2ccccc21 14.1 µM [inhibitor, partial curve, poor fit], COc1ccc(-c2cccc(NS(=O)(=O)c3cc(C(F)(F)F)ccc3Cl)c2)nn1 25.1 µM [inhibitor, single point], COc1ccc(C(=O)NCCc2csc(-c3ccc(Cl)cc3)n2)cc1 31.6 µM [inhibitor, partial curve, poor fit], Cc1ccc(N(CC(=O)Nc2ccc(F)cc2F)S(=O)(=O)c2cccs2)cc1 31.6 µM [inhibitor, partial curve, poor fit], Cc1cc(C)c(NC(=O)CN2C(=O)C3(SCC(=O)N3c3ccc(F)cc3)c3ccccc32)c(C)c1 (configuration not stated) 22.4 µM [inhibitor, partial curve, poor fit]
